PubChem BioAssay AID504937 (National Center for Advancing Translational Sciences (NCATS), 2011)
In all, about 340,000 compounds went through this assay and about 20 (0.006%) were called active. Inconclusive results, whose numbers are uncertain, are shown with a selection of clear calls. Calls follow the shape of the dose curve; as a rule, active = well fitted inhibition curve with a large enough effect; inconclusive = small, poorly fitted or top-dose-only effect; inactive = no such curve, though single readings can be large or run the other way. Potencies of inconclusive entries are doubtful fits and often do not repeat.

These compounds were tested against Sphingomyelin phosphodiesterase (Homo sapiens) (UniProt P17405) (assay: Inhibitors of Secretory Acid Sphingomyelinase (S-ASM): qHTS). Conditions: placental ASM, HMU-PC fluorogenic substrate (series up to 57.5 µM), 60 min.
In short: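 Fluorogenic HMU-PC substrate (9 uM final) is turned over by placental ASM in 60 min at 37 C after a 10 min compound preincubation. Reaction ended by alkaline stop (pH 10), with fluorescence read at 386/447 nm.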
Potency is read from the fitted curve at half-maximal effect; tags tell the direction and shape of the fitted curve.

Chain of UniProt P17405 (P17405 whole entry, looked up): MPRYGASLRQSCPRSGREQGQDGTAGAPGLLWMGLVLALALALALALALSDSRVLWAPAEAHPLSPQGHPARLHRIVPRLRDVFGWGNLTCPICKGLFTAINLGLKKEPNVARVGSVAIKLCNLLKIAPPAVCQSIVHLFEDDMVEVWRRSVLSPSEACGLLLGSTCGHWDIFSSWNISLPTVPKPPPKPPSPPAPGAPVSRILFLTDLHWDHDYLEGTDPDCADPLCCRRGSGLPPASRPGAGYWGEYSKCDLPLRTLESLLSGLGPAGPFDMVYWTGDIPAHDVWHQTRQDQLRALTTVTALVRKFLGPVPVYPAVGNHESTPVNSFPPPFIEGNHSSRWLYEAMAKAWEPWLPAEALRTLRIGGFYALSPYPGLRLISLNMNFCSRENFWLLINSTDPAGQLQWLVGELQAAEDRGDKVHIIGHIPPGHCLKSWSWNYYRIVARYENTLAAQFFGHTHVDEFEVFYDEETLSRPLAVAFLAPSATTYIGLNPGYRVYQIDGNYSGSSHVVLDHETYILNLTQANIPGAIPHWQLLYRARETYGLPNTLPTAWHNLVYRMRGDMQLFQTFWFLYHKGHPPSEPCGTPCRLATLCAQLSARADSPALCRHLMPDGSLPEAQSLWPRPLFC

Row | Structure (SMILES) | Potency
1 | CC1CCN(c2ccc(/C=C(\C#N)c3nn(-c4ccccc4)c(N)c3C#N)cc2[N+](=O)[O-])CC1 | inconclusive: 447 µM [inhibitor, partial curve, poor fit]
2 | Nc1c2c(=O)oc(-c3ccccc3)cc2nn1-c1ccccc1 | inactive
3 | O=C1c2ccccc2-c2ncnc3c(N4CCOCC4)cc(N4CCOCC4)c1c23 | inconclusive: 44.7 µM [inhibitor, single point]
4 | COc1ccc(N2CC(O)=C(c3n(C)c4ccccc4[n+]3C)C2=N)cc1 | inactive
5 | O=C(NC1CCCCCC1)c1c2c(nc3ccccc13)CCN(Cc1ccccc1)C2 | inactive
6 | Cc1ccc(C(=O)NCC2CCCO2)cc1N1CCCC1=O (stereo not drawn) | inactive
7 | Cc1cc(C=C2C(=O)c3ccccc3C2=O)c(C)n1C | inconclusive: 316 µM [inhibitor, partial curve, poor fit]
8 | c1ccc2ncccc2c1 | inactive
9 | CCN1CCN(Cc2ccc(NC(=O)c3ccc(C)c(NC(=O)C(=O)c4c[nH]c5ccccc45)c3)cc2C(F)(F)F)CC1 | inconclusive: 63.1 µM [inhibitor, partial curve, poor fit]
10 | CCOc1cc(/C=C/c2ccc3cccc([N+](=O)[O-])c3n2)ccc1O | inconclusive: 79.4 µM [inhibitor, single point]
11 | COc1ccc(CNc2ccc(Cl)cc2)cc1Cn1ccnc1 | inactive
12 | CCC1=C(OC(=O)N(CC)CC)N2C(=O)OC(=NCC3CC3)[C@]2(Cc2ccccc2)[C@H]2C1=CC[C@H]1C(=O)N(CC)C(=O)[C@H]12 | inactive
13 | O=C(Nc1sc2c(c1C(=O)c1ccc(Cl)cc1)CCCC2)c1cccnc1 | inconclusive: 79.4 µM [inhibitor, single point]
14 | C[C@H]1CN([C@@H](C)CO)C(=O)c2cccc(NC(=O)Nc3ccc(C(F)(F)F)cc3)c2O[C@@H]1CN(C)S(=O)(=O)c1ccc(Cl)cc1 | inconclusive: 50.1 µM [inhibitor, partial curve]
15 | CC(=O)c1cccc(N(CC(=O)NC2CCCCC2)C(=O)Cn2nnc(-c3ccccc3)n2)c1 | inconclusive: 282 µM [inhibitor, partial curve, poor fit]
16 | CCc1ccc([C@@H]2CC=C(C(=O)O)[C@H](c3ccc(Cl)cc3)N2S(=O)(=O)c2ccc(C)cc2)cc1 | inconclusive: 126 µM [inhibitor, partial curve, poor fit]
17 | Cn1c(=O)cc(SCC(=O)Nc2ccccn2)c2ccccc21 | inactive
18 | COc1cccc(Cn2cnc3c(NS(=O)(=O)c4ccc(Cl)cc4Cl)c(C)c(C)cc32)c1 | inconclusive: 562 µM [inhibitor, partial curve, poor fit]
19 | O=C(Nc1ccc(S(=O)(=O)Nc2cnc3ccccc3n2)cc1)c1ccc(Cl)c([N+](=O)[O-])c1 | inconclusive: 355 µM [inhibitor, partial curve, poor fit]
20 | Nc1c(C(O)(C(F)(F)F)C(F)(F)F)cc(C(O)(C(F)(F)F)C(F)(F)F)c2ccccc12 | inconclusive: 63.1 µM [inhibitor, partial curve]
21 | CC(C)[C@H](NC(=O)OC(C)(C)C)c1nnc(S(=O)(=O)Cc2c(F)cccc2Cl)o1 | inactive

Row | Structure (SMILES) | Potency
22 | COc1ccc(/C=N\NC(=O)c2sccc2C)cc1Cn1nc(C)cc1C | inactive
23 | COc1ccc(-c2nc(SCC(=O)Nc3nccs3)c(-c3ccc(Cl)cc3)[nH]2)cc1 | inconclusive: 44.7 µM [inhibitor, partial curve, poor fit]
24 | CC1CCN(CCOCCOc2ccc(Br)cc2Cl)CC1 | inactive
25 | COc1ccc(CN(C(=O)Cc2c[nH]c3ccccc23)C(C(=O)NC2CCCCC2)c2ccc(C)o2)cc1 (stereo not drawn) | inactive
26 | CC1CCN(C(=O)C2COc3ccccc3O2)CC1 (stereo not drawn) | inactive
27 | CCc1cccc(NC(=O)c2ccc(NS(=O)(=O)c3c(C)noc3C)cc2)c1 | inconclusive: 126 µM [inhibitor, partial curve, poor fit]
28 | CC(NC(=O)Cn1nc(C(=O)O)c2ccccc2c1=O)C12CC3CC(CC(C3)C1)C2 (stereo not drawn) | inconclusive: 398 µM [inhibitor, partial curve, poor fit]
29 | CCOC(=O)C(=CNc1ccc(Cl)cn1)C(=O)OCC | inactive
30 | CC(C)=CCc1c(O)cc(O)c2c(=O)c(O[C@@H]3O[C@@H](C)[C@H](O)[C@@H](O)[C@H]3O)c(-c3ccc(O)cc3)oc12 | inconclusive: 89.1 µM [inhibitor, partial curve]
31 | CCCCC(=O)NC(c1ccc(Cl)cc1Cl)c1ccc2cccnc2c1O (stereo not drawn) | inactive
32 | O=C(O)c1cnn2c(C(F)(F)F)cc(-c3ccco3)nc12 | inactive
33 | FC(F)Sc1ccc(N=C2NN=C(c3ccc4c(c3)OCCO4)CS2)cc1 | inconclusive: 200 µM [inhibitor, partial curve, poor fit]
34 | CCC(C)Nc1nc(-c2cccc(OC)c2O)nc2ccccc12 (stereo not drawn) | inconclusive: 79.4 µM [inhibitor, single point]
35 | O=C(O/N=C\c1ccc(N2CCCCC2)c([N+](=O)[O-])c1)c1c(F)cccc1F | inconclusive: 447 µM [inhibitor, partial curve, poor fit]
36 | O=C(COc1ccccc1Cl)N1CCN(c2ccc([N+](=O)[O-])c(N3CCCCC3)c2)CC1 | inconclusive: 100 µM [inhibitor, partial curve, poor fit]
37 | CCCCCOc1ccc(C(=O)Nc2ccc(N3CCOCC3)cc2N2CCOCC2)cc1 | inconclusive: 112 µM [inhibitor, partial curve, poor fit]
38 | Cc1cc([N+](=O)[O-])ccc1-c1ccc(C2Nc3ccccc3C(=O)N2O)o1 (stereo not drawn) | inconclusive: 89.1 µM [inhibitor, single point]
39 | O=C1CC(=C2c3ccccc3-c3ccccc32)C(=O)N1CCCCN1CCN(c2ccccc2)CC1 | inconclusive: 56.2 µM [inhibitor, partial curve, poor fit]
40 | CCCCOc1ccc(CONS(=O)(=O)c2ccc(NC(C)=O)cc2)cc1Cl | inconclusive: 89.1 µM [inhibitor, single point]
41 | OCc1ccccc1OCCCOc1cccc2cccnc12 | inactive
42 | C(=N\NC1=Nc2cccc3cccc1c23)/c1ccccc1 | inconclusive: 89.1 µM [inhibitor, partial curve, poor fit]

Row | Structure (SMILES) | Potency
43 | CCCc1n[nH]c2c1/C(=N/O)CC(c1ccccc1)C2 (stereo not drawn) | inconclusive: 15.8 µM [inhibitor, partial curve, poor fit]
44 | COc1cc(N(C)C)c([N+](=O)[O-])cc1C(=O)NC(C)CNc1ccc([N+](=O)[O-])cc1Cl (stereo not drawn) | inconclusive: 562 µM [inhibitor, partial curve, poor fit]
45 | C(=N\Nc1nc(N2CCCCC2)nc(N2CCCCC2)n1)/c1c[nH]c2ccccc12 | inconclusive: 100 µM [inhibitor, partial curve, poor fit]
46 | COc1ccccc1C(=O)N1[C@@H](C(C)C)COc2cc(Br)ccc2S1(=O)=O | inactive
47 | c1csc(Cn2nnnc2CN2CCN(c3nc4ccccc4s3)CC2)c1 | inconclusive: 112 µM [inhibitor, partial curve, poor fit]
48 | CC(C)(C)OC(=O)CNC(=O)c1[nH]cnc1C(=O)NCC(=O)OCc1ccccc1 | inactive
49 | CCCCCCCCNc1ncnc2[nH]ncc12 | inactive
50 | O=C(Cc1ccccc1)Nc1nnc(-c2cccc([N+](=O)[O-])c2)s1 | inactive
51 | CCN(CC)S(=O)(=O)c1ccc(NCC2COc3ccccc3O2)c([N+](=O)[O-])c1 (stereo not drawn) | inconclusive: 158 µM [inhibitor, partial curve]
52 | O=C(NCC1CCCO1)C(c1cccs1)N(Cc1cccs1)C(=O)c1ccc(-c2ccccc2)[nH]1 (stereo not drawn) | inactive
53 | CCOc1ccc(CCN2C(=S)N([C@@H](CC(C)C)CN3CCCC3CN3C(=S)NC[C@@H]3CC(C)C)C[C@@H]2Cc2ccc(O)cc2)cc1 (stereo partly drawn) | inconclusive: 79.4 µM [inhibitor, partial curve, poor fit]
54 | CCCn1c(O)c(/C=C2\C=NN=C2c2ccccc2)sc1=S | inconclusive: 224 µM [inhibitor, partial curve, poor fit]
55 | COc1ccc2cc(CN(C(=O)Nc3ccccc3)C3CCCC3)c(=O)[nH]c2c1 | inconclusive: 112 µM [inhibitor, partial curve, poor fit]
56 | CCOc1ccc(NC(=O)C(C)Oc2ccccc2C(=O)Nc2ccc(C)c(Cl)c2)cc1 (stereo not drawn) | inconclusive: 70.8 µM [inhibitor, partial curve, poor fit]
57 | Cc1ccc(Sc2ccc(/C=N/O)cc2[N+](=O)[O-])cc1 | inconclusive: 178 µM [inhibitor, partial curve, poor fit]
58 | COc1cc(C2Oc3cc(C4Oc5cc(O)cc(O)c5C(=O)C4O)ccc3OC2CO)ccc1O (stereo not drawn) | inconclusive: 100 µM [inhibitor, partial curve, poor fit]
59 | COC(=O)c1ccc(NC(=S)NNC(=O)c2ccccc2)cc1 | inactive
60 | COc1cc(/C=C2\SC(=S)N(CC(=O)Nc3ccccn3)C2=O)cc(OC)c1OC | inconclusive: 126 µM [inhibitor, partial curve]
61 | Cc1csc2c(N3CCN(C(=S)Nc4ccc(C(F)(F)F)cc4)CC3)ncnc12 | inconclusive: 70.8 µM [inhibitor, partial curve, poor fit]
62 | Cc1[nH]c2ccccc2c1C(=O)COC(=O)c1ccc([N+](=O)[O-])s1 | inconclusive: 112 µM [inhibitor, partial curve, poor fit]
63 | Cc1ccc(C(=O)N(c2ccccc2)C2CC(C)N(C(=O)c3ccco3)c3ccccc32)cc1 (stereo not drawn) | inconclusive: 112 µM [inhibitor, partial curve, poor fit]
